According to PubChem BioAssay AID493208 (National Center for Advancing Translational Sciences (NCATS), 2011):
Screen size: about 44,000 compounds; about 340 (0.77%) were called active. About 5% were inconclusive and are not listed. The call rests on the fitted dose curve; in most records, active means well fitted inhibition curve with a large enough effect; inconclusive means small, poorly fitted or top-dose-only effect; inactive means flat fitted curve, though single readings scatter. This is one part of the list.

Assay: Acumen qHTS Assay for Inhibitors of the mTORC1 Signaling Pathway in MEF (Tsc2-/-, p53-/-) Cells: Sytravon;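 further: plate controls were DMSO for no effect and rapamycin for full effect; nearly all actives have a fitted effect of over 50% in size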
Settings: phospho-rpS6 immunofluorescence/PI, 24 h; series mostly up to 38.3 µM; activity change, negative = inhibition: at the top concentration
In short: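 Compounds act on Tsc2-/-, p53-/- fibroblasts carrying an empty vector for 24 h before fixation and dual staining for phospho-S6 and DNA (propidium iodide). Values are percentages of cells above a rapamycin-defined pS6/PI threshold.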

| SMILES | activity change, negative = inhibition |
| --- | --- |
| COc1ccc(NC(=O)C2CCC(CNS(=O)(=O)c3ccc4c(c3)C(C)(C)C(=O)N4C)CC2)cc1 (configuration not stated) | inactive: -14.1% |
| Cc1cccc(N2CCN(C(=O)Cn3ncc4c3-c3ccccc3OC4)CC2)c1C | inactive: -7.67% |
| CCOc1ccc(Nc2ncnc3c2nc2n3CCCCC2)cc1 | inactive: 0.67% |
| O=C(Nc1nnc(S(=O)(=O)N2CCCCCC2)s1)c1cccc(Br)c1 | inactive: 9.4% |
| N#Cc1ccccc1Cn1c(SCC(=O)Nc2ccc(F)cc2)nc2ccccc21 | inactive: -2.09% |
| O=C(COc1ccccc1)Nc1ccc2nc(SCC(=O)N3CCc4ccccc43)sc2c1 | inactive: -6.67% |
| CCOc1ccc(C(=O)Nc2onc3c2CCCC3)cc1 | inactive: 2.19% |
| Cn1cnc(S(=O)(=O)N2CCC(C(=O)Nc3ccc(C#N)cc3)CC2)c1 | inactive: 0% |
| Clc1cccc(N2CCN(c3c4c(nc5nncn35)CCC4)CC2)c1 | inactive: -21.4% |
| CC(=O)c1ccc(NC(=O)c2nc(-c3ccccc3)n(-c3ccccc3Cl)n2)cc1 | inactive: 1.03% |
| COc1ccc(CNCCCSc2nnnn2C)c(OC)c1 | inactive: 0.915% |
| CCc1nnc(SCc2ccc(F)cc2Cl)c2cc3sc(C)cc3n12 | inactive: -7.48% |
| COc1cccc(CNC(=O)CCn2c(=O)c3cccn3c3cccnc32)c1OC | inactive: 0.395% |
| CCOC(=O)c1ccccc1NC(=O)c1ccc2c(Cl)c3c(nc2c1)CCC3 | inactive: 0.187% |
| Cc1nn(CC(=O)NCC(C)c2ccccc2)c(=O)c2cc3ccccc3n12 (configuration not stated) | inactive: 1.14% |
| COc1cc2oc(=O)c(CC(=O)NCc3ccc(OC)c(OC)c3)c(C)c2cc1Cl | inactive: -1.85% |
| Cc1ccc(-c2noc(-c3ccc(N4CCCCC4C)c([N+](=O)[O-])c3)n2)cc1 (configuration not stated) | inactive: -7.53% |
| CCCCn1c(=O)c2oc3ccccc3c2n(Cc2cccc(C)c2)c1=O | inactive: 3.01% |
| Cc1ccccc1NC(=O)CSc1cn(CC(=O)N2CCCC2)c2ccccc12 | inactive: 4.44% |
| Cc1c(C(=O)Nc2ccc(-c3nc4cc(Cl)ccc4o3)cc2)oc2ccccc12 | inactive: -2.7% |
| COc1ccc(N(C)C(=O)c2nc(-c3cccc(F)c3)n3c2CCCCC3)c(OC)c1 | inactive: -5.99% |

| SMILES | activity change, negative = inhibition |
| --- | --- |
| CCOc1ccc(NC(=O)CN2CCN(C3CCCCC3)C(=O)C2=O)cc1 | inactive: 14.7% |
| Cc1ccc(S(=O)(=O)N2CCc3cc(C(=O)NCCc4ccccc4)ccc32)cc1 | inactive: 0.258% |
| Cc1ccc(-c2cc(-c3coc4ccccc4c3=O)c3c(n2)-c2ccccc2OC3)cc1 | inactive: 4.69% |
| Cc1c(-c2cccc(NC(=O)Nc3ccccc3)c2)nc2ncccn12 | inactive: 0.632% |
| Cc1cc(-c2ccc(S(=O)(=O)NCc3ccccc3Cl)s2)on1 | inactive: -4.12% |
| CCS(=O)(=O)N1CCC2(CC1)OC(=O)C(C)=C2C(=O)NCc1ccccc1C | inactive: -0.393% |
| COc1cccc(Cn2c(=O)cc(C)c3c(C)nn(-c4ccc(C)cc4)c32)c1 | inactive: -9.6% |
| Cc1ccc(S(=O)(=O)n2nc(-c3ccccc3)nc2NCc2ccccc2Cl)cc1 | inactive: 2.79% |
| Cc1cccc(N2C(=O)C(CC(=O)Nc3ccc(F)cc3)N(C3CCCC3)C2=O)c1 (configuration not stated) | inactive: -0.452% |
| Cc1ccc(-c2cc(C(=O)N3CCN(S(=O)(=O)c4ccc(Br)s4)CC3)[nH]n2)cc1C | inactive: -0.265% |
| Cc1oc2ccc(O)c(CN3CCN(C)CC3)c2c1C(=O)Nc1ccc(C(C)C)cc1 | inactive: -8.98% |
| COc1ccc(CNc2nc(-c3ccco3)nn2S(=O)(=O)c2ccc3ccccc3c2)cc1OC | inactive: 0.579% |
| Cc1cc(C)n2nc(NCc3ccccc3Cl)nc2n1 | inactive: -1.62% |
| Cc1ccc(C)c(NC(=O)Cn2c(=O)n(Cc3nc(C)no3)c(=O)c3cc4c(cc32)OCO4)c1 | inactive: 0% |
| CCc1ccc(NC(=O)Cn2c(=O)n(Cc3ccc4c(c3)OCO4)c(=O)c3oc4ccccc4c32)cc1 | inactive: -3.2% |
| Cc1ccc(-c2noc(CN(C3CCCCC3)S(=O)(=O)c3ccc(F)cc3)n2)cc1 | inactive: 5.82% |
| CC(=O)Nc1ccc(NC(=O)CSc2cn(CC(=O)N(C(C)C)C(C)C)c3ccccc23)cc1 | inactive: 2% |
| Cc1cc2oc(C(=O)NCCc3ccc(S(N)(=O)=O)cc3)cc(=O)c2cc1C | inactive: -9.43% |
| CCC(=O)N1CCc2cc(S(=O)(=O)NC(Cc3ccccc3)C(=O)NCc3ccc(C)cc3)ccc21 (configuration not stated) | inactive: -2.62% |
| CCOc1ccccc1CN1C(=O)c2ccccc2C1C(=O)NC1CCCCCC1 (configuration not stated) | inactive: -3.2% |
| COc1cc(C(=O)NCc2nnnn2-c2ccc(C)c(C)c2)cc(OC)c1OC | inactive: 6.27% |

| SMILES | activity change, negative = inhibition |
| --- | --- |
| COC(=O)c1cc2occc2n1Cc1nc(-c2ccccc2C)oc1C | inactive: -6.88% |
| COc1ccc(-c2nc(C)c(CCNC(=O)c3ccco3)s2)cc1 | inactive: -19.4% |
| CCC(C)Sc1nc2c([nH]c3ccccc32)c(=O)n1C (configuration not stated) | inactive: -6.35% |
| CCN1CCN(C(=O)c2ccc3c(c2)N(Cc2c(F)cccc2Cl)C(=O)c2ccccc2S3)CC1 | inactive: -12.1% |
| Cc1ccccc1COC(=O)c1ccc(-c2nnn(Cc3ccccc3F)n2)cc1 | inactive: 2.63% |
| CC(=O)N1c2ccc(S(=O)(=O)N3CCN(c4cc(Cl)ccc4C)CC3)cc2CC1C (configuration not stated) | inactive: -3.12% |
| O=C(CCCCCn1c(=O)[nH]c2ccccc2c1=O)N1CCN(c2ccc(Cl)cc2)CC1 | inactive: -4.68% |
| COC(=O)c1ccc(CNC(=O)c2nc(Cn3nc(C)c(Br)c3C)no2)cc1 | inactive: 2.7% |
| O=C(CSc1nc2c([nH]c3ccccc32)c(=O)n1-c1cccc(Cl)c1)NCc1ccccc1 | inactive: -19.9% |
| COc1cc2c(cc1OC)C(COc1cc(C)cc(C)c1)N(C(=O)c1ccc(S(=O)(=O)N3CCCC3)cc1)CC2 (configuration not stated) | inactive: 4.77% |
| CCc1nnc(NC(=O)CSc2nc3c([nH]c4ccccc43)c(=O)n2-c2ccc(C)cc2)s1 | inactive: -6.84% |
| CCc1nc2ccc(C(=O)N3CCN(c4cccc(OC)c4)CC3)cc2nc1CC | inactive: -3.12% |
| Cc1ccc(C)c(-c2ccc(=O)n(Cc3ccc(F)cc3Cl)n2)c1 | inactive: -6.25% |
| O=C(COc1ccccc1)Nc1sc2c(c1C(=O)Nc1ccccc1)CCCCC2 | inactive: -9.09% |
| CCOC(=O)C1CCCN(C(=O)Cn2ncc3c4ccccc4n(Cc4ccc(F)cc4)c3c2=O)C1 (configuration not stated) | inactive: -5.57% |
| CCOC(=O)c1ccc(NC(=O)CCn2c(=O)oc3ccccc32)cc1 | inactive: -3.4% |
| CCOC(=O)CNC(=O)CC(c1cc(OC)c(OC)c(OC)c1)N1Cc2ccccc2C1=O (configuration not stated) | inactive: 1.29% |
| CCN(CC)c1ccc(C(=O)Nc2ccc3nc(N(CC)CC)cc(C)c3c2)cc1 | inactive: -4.61% |
| Cc1ccc2[nH]c(CSc3nnc(NC(=O)COc4ccccc4Cl)s3)cc(=O)c2c1 | inactive: -16.5% |
| CCc1ccc(NC(=O)C2CCCN(S(=O)(=O)c3cccc4cccnc34)C2)cc1 (configuration not stated) | inactive: 1.28% |
